Reference: the supplement of paper PMC4967469

How the values were obtained:
Experiment in all cases: Viability of human cancer cell lines after 72 h of drug (GDSC screen)
EHT 1864 = compound: O=c1cc(CN2CCOCC2)occ1OCCCCCSc1ccnc2cc(C(F)(F)F)ccc12 [EHT 1864]; conditions: top dose 10 µM; top dose inferred
Procedure: (§1)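 Human cancer cell lines in 384-well plates, medium with 10% serum, drug for 72 h over a 256-fold dose range (nine 2-fold or five 4-fold steps up to the top dose). Adherent lines were fixed and stained with the nucleic acid dye Syto60, suspension lines read with resazurin; signal relative to control wells, capped at 0 and 100%. One two-parameter sigmoid per drug and line, fitted in a mixed model over all curves with the slope shared within a line.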

Vinorelbine = compound: CCC1=C[C@@H]2CN(C1)Cc1c([nH]c3ccccc13)[C@@](C(=O)OC)(c1cc3c(cc1OC)N(C)[C@H]1[C@@](O)(C(=O)OC)[C@H](OC(C)=O)[C@]4(CC)C=CCN5CC[C@]31[C@@H]54)C2 [Vinorelbine]; conditions: top dose 0.064 µM; top dose inferred
Procedure: as §1

Erlotinib = compound: C#Cc1cccc(Nc2ncnc3cc(OCCOC)c(OCCOC)cc23)c1 [Erlotinib]; conditions: top dose 2 µM
Procedure: as §1

Gefitinib = compound: COc1cc2ncnc(Nc3ccc(F)c(Cl)c3)c2cc1OCCCN1CCOCC1 [Gefitinib]; conditions: top dose 0.5 µM
Procedure: as §1

Phenformin = compound: N=C(N)NC(=N)NCCc1ccccc1 [Phenformin]; conditions: top dose 4000 µM; top dose inferred
Procedure: as §1

WHI-P97 = compound: COc1cc2ncnc(Nc3cc(Br)c(O)c(Br)c3)c2cc1OC [WHI-P97]; conditions: top dose 10.24 µM; top dose inferred
Procedure: as §1

AG-014699 = compound: CNCc1ccc(-c2[nH]c3cc(F)cc4c3c2CCNC4=O)cc1 [AG-014699]; conditions: top dose 5 µM; top dose inferred
Procedure: as §1

NU-7441 = compound: O=c1cc(N2CCOCC2)oc2c(-c3cccc4c3sc3ccccc34)cccc12 [NU-7441]; conditions: top dose 2 µM; top dose inferred
Procedure: as §1

S-Trityl-L-cysteine = compound: N[C@@H](CSC(c1ccccc1)(c1ccccc1)c1ccccc1)C(=O)O [S-Trityl-L-cysteine]; conditions: top dose 5.12 µM; top dose inferred
Procedure: as §1

XL-184 = compound: COc1cc2nccc(Oc3ccc(NC(=O)C4(C(=O)Nc5ccc(F)cc5)CC4)cc3)c2cc1OC [XL-184]; conditions: top dose 5.12 µM; top dose inferred
Procedure: as §1

QL-XI-92 = compound: C=CC(=O)Nc1cc(NC(=O)c2ccc(C)c(NC(=O)c3ccno3)c2)cc(C(F)(F)F)c1 [QL-XI-92]; conditions: top dose 10.24 µM; top dose inferred
Procedure: as §1

| Cell Line | AUC (EHT 1864) | IC50 (EHT 1864) | AUC (Vinorelbine) | IC50 (Vinorelbine) | AUC (Erlotinib) | IC50 (Erlotinib) | AUC (Gefitinib) | IC50 (Gefitinib) | AUC (Phenformin) | IC50 (Phenformin) | AUC (WHI-P97) | IC50 (WHI-P97) | AUC (AG-014699) | IC50 (AG-014699) | AUC (NU-7441) | IC50 (NU-7441) | AUC (S-Trityl-L-cysteine) | IC50 (S-Trityl-L-cysteine) | AUC (XL-184) | IC50 (XL-184) | AUC (QL-XI-92) | IC50 (QL-XI-92) |
| --- | --- | --- | --- | --- | --- | --- | --- | --- | --- | --- | --- | --- | --- | --- | --- | --- | --- | --- | --- | --- | --- | --- |
| JJN-3 (haematopoietic neoplasm, suspension) | 0.988 | > 10 µM | 0.548 | 0.00527 µM | 0.99 | > 2 µM | 0.978 | > 0.5 µM | 0.814 | 1700 µM | 0.976 | > 10.2 µM | 0.993 | > 5 µM | 0.992 | > 2 µM | 0.687 | 0.955 µM | 0.971 | > 5.12 µM | 0.806 | 4.12 µM |
| JM1 (B-cell lymphoma, suspension) | 0.966 | > 10 µM | 0.666 | 0.0108 µM | 0.98 | > 2 µM | 0.991 | > 0.5 µM | 0.907 | > 4000 µM | 0.984 | > 10.2 µM | 0.991 | > 5 µM | 0.979 | > 2 µM | 0.723 | 1.23 µM | 0.97 | > 5.12 µM | 0.711 | 2.28 µM |
| JVM-3 (lymphoid neoplasm, suspension) | 0.954 | > 10 µM | 0.965 | > 0.064 µM | 0.987 | > 2 µM | 0.941 | > 0.5 µM | 0.794 | 1880 µM | 0.977 | > 10.2 µM | 0.948 | > 5 µM | 0.934 | > 2 µM | 0.987 | > 5.12 µM | 0.915 | > 5.12 µM | 0.987 | > 10.2 µM |
| KARPAS-299 (anaplastic large cell lymphoma, suspension) | 0.97 | > 10 µM | 0.886 | 0.0499 µM | 0.992 | > 2 µM | 0.992 | > 0.5 µM | 0.818 | 1790 µM | 0.988 | > 10.2 µM | 0.99 | > 5 µM | 0.976 | > 2 µM | 0.864 | 3.29 µM | 0.981 | > 5.12 µM | 0.957 | > 10.2 µM |
| KARPAS-422 (B-cell lymphoma, suspension) | 0.988 | > 10 µM | 0.66 | 0.011 µM | 0.987 | > 2 µM | 0.972 | > 0.5 µM | 0.687 | 829 µM | 0.984 | > 10.2 µM | 0.979 | > 5 µM | 0.886 | > 2 µM | 0.745 | 1.59 µM | 0.986 | > 5.12 µM | 0.965 | > 10.2 µM |
| KE-37 (lymphoblastic leukaemia, suspension) | 0.957 | > 10 µM | 0.538 | 0.00494 µM | 0.991 | > 2 µM | 0.989 | > 0.5 µM | 0.517 | 275 µM | 0.944 | > 10.2 µM | 0.989 | > 5 µM | 0.99 | > 2 µM | 0.526 | 0.369 µM | 0.93 | 5.07 µM | 0.894 | 7.16 µM |
| KGN (ovary, adherent) | 0.898 | > 10 µM | 0.552 | 0.00571 µM | 0.946 | > 2 µM | 0.981 | > 0.5 µM | 0.281 | 51.9 µM | 0.949 | > 10.2 µM | 0.928 | > 5 µM | 0.918 | > 2 µM | 0.627 | 0.775 µM | 0.757 | 2.12 µM | 0.949 | > 10.2 µM |
| KMOE-2 (acute myeloid leukaemia, suspension) | 0.959 | > 10 µM | 0.83 | 0.0345 µM | 0.99 | > 2 µM | 0.983 | > 0.5 µM | 0.757 | 1240 µM | 0.958 | > 10.2 µM | 0.985 | > 5 µM | 0.929 | > 2 µM | 0.934 | > 5.12 µM | 0.97 | > 5.12 µM | 0.873 | 8.06 µM |
| KNS-81-FD (glioma, adherent) | 0.868 | > 10 µM | 0.913 | > 0.064 µM | 0.95 | > 2 µM | 0.963 | > 0.5 µM | 0.506 | 262 µM | 0.979 | > 10.2 µM | 0.902 | > 5 µM | 0.95 | > 2 µM | 0.944 | > 5.12 µM | 0.969 | > 5.12 µM | 0.972 | > 10.2 µM |
| KURAMOCHI (ovary, adherent) | 0.984 | > 10 µM | 0.473 | 0.00335 µM | 0.962 | > 2 µM | 0.984 | > 0.5 µM | 0.884 | > 4000 µM | 0.978 | > 10.2 µM | 0.948 | > 5 µM | 0.952 | > 2 µM | 0.864 | > 5.12 µM | 0.972 | > 5.12 µM | 0.984 | > 10.2 µM |
| L-428 (Hodgkin lymphoma, suspension) | 0.957 | > 10 µM | 0.92 | > 0.064 µM | 0.993 | > 2 µM | 0.99 | > 0.5 µM | 0.993 | > 4000 µM | 0.99 | > 10.2 µM | 0.991 | > 5 µM | 0.973 | > 2 µM | 0.812 | 2.34 µM | 0.992 | > 5.12 µM | 0.985 | > 10.2 µM |

By IC50 is meant the dose at which the fit gives 50% viability; fits outside the tested doses are given as limits. The AUC spans the tested range (256-fold, ending at the top dose) of the same fit; values near 1 show little effect. For some assays here: Any top dose called inferred was derived from the fitted curves, not read from the paper.
